Data published in PubChem BioAssay AID624417 (National Center for Advancing Translational Sciences (NCATS), 2012).
Among all 410,000 compounds or so, about 6,400 (1.6%) were called active. The inconclusive results got no clear call from the source; some entries with a clear call stand among them for comparison. Calls come from the whole dose curve; as a rule, active = well fitted inhibition curve with a large enough effect; inconclusive = small, poorly fitted or top-dose-only effect; inactive = no such curve, though single readings can be large or run the other way. No potency is given beside an inconclusive call; the fits are too rough.

biological target: Glucagon-like peptide 1 receptor (Homo sapiens) (UniProt P43220); assay: qHTS of GLP-1 Receptor Inverse Agonists (Inhibition Mode); conditions: HEK293 GLP-1R CRE-luciferase, luminescence, 24 h, GLP-1R form is constitutively active; activity change, negative = inhibition: at 38.3 µM (top of the series) unless noted; note: nearly all actives have a fitted effect of over 55% in size
Method in brief: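 Readout was luciferase luminescence, measured 12 min after detection reagent at room temperature. Beforehand, GLP-1R reporter HEK293 cells had sat 12 h, then received compounds for 24 hr at 37 deg C.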
% is set by controls: 0 for no effect and ±100 for the full control effect; potency is the fitted concentration of half-maximal effect; tags give direction and shape of the fitted curve.

UniProt P43220, sequence (P43220 whole entry, looked up): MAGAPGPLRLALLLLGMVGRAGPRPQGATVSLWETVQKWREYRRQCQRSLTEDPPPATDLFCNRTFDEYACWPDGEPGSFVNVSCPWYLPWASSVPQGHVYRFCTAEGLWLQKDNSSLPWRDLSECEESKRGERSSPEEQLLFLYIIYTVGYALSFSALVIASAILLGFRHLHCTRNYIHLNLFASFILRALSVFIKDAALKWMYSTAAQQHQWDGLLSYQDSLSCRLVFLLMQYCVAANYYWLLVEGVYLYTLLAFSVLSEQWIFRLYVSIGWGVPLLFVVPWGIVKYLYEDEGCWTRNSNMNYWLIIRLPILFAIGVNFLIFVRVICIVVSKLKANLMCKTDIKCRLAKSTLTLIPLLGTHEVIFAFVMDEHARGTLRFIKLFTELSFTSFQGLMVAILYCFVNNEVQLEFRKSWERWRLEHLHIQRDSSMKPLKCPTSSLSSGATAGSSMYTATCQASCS

SMILES	Potency	activity change, negative = inhibition
CC1(C(=O)Nc2cccc3c2CCCC3)CCN1C(=O)C1(c2ccc(Cl)cc2)CC1 (centres undefined)	inconclusive [inhibitor, partial curve, poor fit]	–
Cc1ccc(S(=O)(=O)c2nc(-c3ccco3)oc2SCC(=O)c2ccc(Cl)cc2)cc1	inconclusive [inhibitor, single point]	–
Cc1ccc(NC(=O)NCCN2CCCCC2)cc1Cl	inconclusive [inhibitor, partial curve, poor fit]	–
COc1cccc(CNC(=O)c2ccc3c(Cl)c4c(nc3c2)CCCC4)c1	inconclusive [inhibitor, single point]	–
Cc1ccc(C(C)C)c(OCc2ccc(C(=O)Nc3ccc(S(N)(=O)=O)cc3C)o2)c1	inconclusive [inhibitor, single point]	–
Cn1c(Cc2cccc3ccccc23)nnc1SCC(=O)N1CCN(c2cccc(Cl)c2)CC1	inconclusive [inhibitor, partial curve, poor fit]	–
Cc1ccc(C(=O)O/N=C/c2c(N3CCOCC3)n(C)c3ccccc23)cc1	inconclusive [inhibitor, full curve, poor fit]	–
CC(C)N(C(=O)[C@H]1C[C@H](CC(=O)NCCC2=CCCCC2)C(=O)N2CCc3c([nH]c4cc(CCC(=O)N(C)C)ccc34)[C@]12C)C(C)C	–	inactive: -32.8%
CCOC(=O)c1c(-c2ccc(OC)cc2)csc1/N=C/C1C(=O)CCCC1=O	inconclusive [inhibitor, partial curve, poor fit]	–
O=C(NCC1CCN(Cc2cccc(Cl)c2)CC1)C1CCCN(c2ncnc3c2nc2n3CCCCC2)C1 (centres undefined)	inconclusive [inhibitor, partial curve, poor fit]	–
CCOc1ccccc1OCC(=O)NC1CCSc2ccccc21 (centres undefined)	inconclusive [inhibitor, partial curve, poor fit]	–
COc1cccc(/C=N/NC(=S)NC2CC3CCC2C3)c1OC (centres undefined)	inconclusive [inhibitor, partial curve, poor fit]	–
COc1ccc(CCNCCC(c2ccccc2)c2ccccc2)cc1OC	inconclusive [inhibitor, single point]	–
COc1cc(NC(=O)c2ccc(F)cc2)c(OC)cc1NC(=O)CN1CCCCC1	inconclusive [inhibitor, full curve]	–
CCOc1ccc(CCNC(=O)c2ccc(C)c(-n3cnc4cccnc43)c2)cc1	–	inactive: -2.62%
COCOc1cccc(CN2CCC2(C)C(=O)Nc2ccc(C)c(O)c2)c1 (centres undefined)	inconclusive [inhibitor, partial curve, poor fit]	–
Cc1ccc(S(=O)(=O)N2CCC(c3nnc(-c4cccc(C)c4)o3)CC2)cc1	inconclusive [inhibitor, single point]	–
CCC(C(=O)NCc1cccc(C)c1)n1nc(C)c2c(C)n(-c3ccccc3)nc2c1=O (centres undefined)	inconclusive [inhibitor, single point]	–
Cc1nn(-c2ccccc2)c(C)c1/C=N\NS(=O)(=O)c1ccc(Cl)cc1	inconclusive [inhibitor, single point]	–
CN(CC(=O)NCCc1ccc(Cl)cc1)S(=O)(=O)c1cccs1	inconclusive [inhibitor, partial curve, poor fit]	–

SMILES	Potency	activity change, negative = inhibition
N#CC1=C(N)Oc2cc(N)ccc2C1c1cc(Br)cs1 (centres undefined)	inconclusive [inhibitor, single point]	–
CCN(CC)c1ccc(/C=N/NC(=O)OC)c(O)c1	–	inactive: 29.4%
Cc1ccc2nc(-c3ccco3)c(Nc3ccccc3)n2c1	–	inactive: 1.88%
COc1cc(/C=N\NC(=O)C(C)(C)O)ccc1OC/C=C/c1ccccc1	inconclusive [inhibitor, single point]	–
O=c1c2ccccc2c(/C=N/c2ncn[nH]2)c(O)n1Cc1ccccc1	inconclusive [inhibitor, single point]	–
O=C(Nc1cccnc1)c1cccs1	inconclusive [inhibitor, full curve, poor fit]	–
Cc1ccc(SCC(=O)Nc2ccc3oc(-c4ccc(F)cc4)nc3c2)cc1	–	inactive: 3.21%
CN(C)CCNc1nc2sc3c(c2c(=O)n1CCc1ccccc1)CCCCC3	inconclusive [inhibitor, partial curve, poor fit]	–
COc1ccc(-c2csc(NC(=O)c3ccc(OCC(=O)N4CCOCC4)c(OC)c3)n2)cc1	inconclusive [inhibitor, single point]	–
O=C(CN1C(=O)NC2(CCCCC2)C1=O)NCCc1ccc(Cl)cc1Cl	inconclusive [inhibitor, single point]	–
CCc1nc2nc(C)cc(Nc3cc(Cl)ccc3OC)n2n1	–	inactive: 12.2%
CC1(C)CC(=O)C=C(c2ccc(-c3ccccc3)cc2)C1=O	inconclusive [inhibitor, single point]	–
O=C(NCc1ccc(F)cc1)c1cc(C2CCCCN2C(=O)C2CCCCC2)on1 (centres undefined)	inconclusive [inhibitor, single point]	–
CSCCC(C(=O)OCC(=O)c1ccc(C)c(C)c1)N1C(=O)c2ccccc2C1=O (centres undefined)	inconclusive [inhibitor, single point]	–
CC1(C)Cc2c(C#N)c(N3CCN(C(=O)c4ccco4)CC3)nc(Cc3ccccc3)c2CO1	inconclusive [inhibitor, partial curve]	–
FC(F)(F)c1cnc(NNC(=S)Nc2cccnc2)c(Cl)c1	inconclusive [inhibitor, partial curve, poor fit]	–
Cc1ccccc1NC(=O)CSc1nnc(CNC(=O)c2ccc3c(c2)OCO3)n1C	inconclusive [inhibitor, single point]	–
Cc1cccc2sc(N(CCCN(C)C)C(=O)c3sc4ccccc4c3Cl)nc12	inconclusive [inhibitor, single point]	–
CCc1ccccc1NC(=O)c1cc(S(=O)(=O)N2CCC(C)CC2)cn1C	–	inactive: -16.2%
